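Five compound concentrations were applied to cells in 96-well plates for 48 hours; endpoints were derived by simple linear interpolation of the resulting dose-response curve. The concentration for 50% growth inhibition is given as GI50.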 Activity calls are given as the source filed them. Cut-off read from the data, not from the text of the source: active = GI50 up to about 1.1 µM and inactive = higher.

This assay concerns NCI-H322M. Description: growth of human tumour cells (NCI), 48 h.
For `Nc1ccc(-c2nc3ccccc3s2)cc1Cl`, the GI50 was inactive: 84.5 µM.
Turning to `CN(C)CCCNc1c(C#N)[n+]([O-])c2cc(Cl)ccc2[n+]1[O-]`, the GI50 was inactive: 23.2 µM.
`COc1cccc(-c2cc(O)c3cc(OC)ccc3n2)c1`: the GI50 was active: 0.641 µM.
Turning to `Brc1ccc2c(-c3csc(-c4c[nH]c5ccccc45)n3)c[nH]c2c1`, the GI50 was inactive: 16.7 µM.
Under `NC(CSC(c1ccccc1)(c1ccccc1)c1ccccc1)C(=O)O` (configuration not stated) stands active: 0.944 µM; under `NCCOc1ccccn1`, inactive: > 100 µM; under `Cc1sc2nc(-c3cc([N+](=O)[O-])c(Cl)cc3Cl)c(/C=N/NC(=N)N)n2c1C`, inactive: 15.7 µM.
Next, `COc1ccccc1/C=N/N=C(\N)NO`: inactive: 16.6 µM; `O=C(CC(=O)Nc1ccccc1)N/N=C/c1cc(/N=N/c2ccc(Br)cc2)ccc1O`: inactive: 3.48 µM; `CC(=O)O[C@H]1CC[C@@]2(C)C(=CC[C@@H]3C2CC[C@]2(C)Nc4nc5ccccc5cc4CC32)C1` (some centres not stated): inactive: 8.47 µM.
For the compound `OCCN1CCN(c2nc(N3CCCC3)c3nc(Cl)c(NCc4ccccc4)nc3n2)CC1`, the GI50 is inactive: 10.4 µM.
In the case of `CN(C)C=C1C(=O)c2c(Br)sc(Br)c2C1=O`, the GI50 is inactive: 23.8 µM.
Next, `CCN(CC)c1ccc(/N=N/c2ccc(-c3nc4cccnc4o3)cc2)cc1`: inactive: > 100 µM; `O=C1C2C(C(=O)N1c1ccccc1)C1([N+](=O)[O-])C=C3c4ccccc4N(C(=O)c4ccccc4)C32C2C(=O)N(c3ccccc3)C(=O)C21` (configuration not stated): inactive: > 100 µM; `CN(C)CCCNC(=O)N/N=C/c1ccc([N+](=O)[O-])cc1`: inactive: 67.1 µM.
As for `CC(=O)OC1COC(n2c(=S)n(-c3ccccc3)c(=O)c3cc(Br)ccc32)C(OC(C)=O)C1OC(C)=O` (configuration not stated), the GI50 was inactive: 60.8 µM.
Under `CCCCN(CCCC)c1ccc(/N=N/c2ccc(S(=O)(=O)O)cc2)cc1` stands inactive: 19.3 µM; under `Clc1ccc(Cl)c(SCCCN2CCNCC2)c1`, inactive: 17.4 µM; under `[N-]=[N+]=Nc1ccc2c(c1)Sc1ccccc1N2CCCCN1CCN(Cc2ccc(C(=O)c3ccccc3)cc2)CC1`, inactive: 4.06 µM.
`CCSC1=N/C(=C\c2ccccc2O)C(Nc2ccc(C)cc2)=N1`: the GI50 is inactive: > 100 µM.
Under `CCCCCCCCCCCCCCCCc1c(C(=O)OC)[nH]c(=S)[nH]c1=O` stands inactive: > 50 µM; under `CCN(CC)CCCC(C)Nc1cc(-c2ccccc2)nc2cc(OC)ccc12` (configuration not stated), inactive: 5.56 µM.
In the case of `COc1ccc(C2S/C(=C\c3ccc(OC)cc3OC)C(=O)N2NC(=O)Cc2ccccc2)cc1` (configuration not stated), the GI50 is inactive: > 100 µM.
Turning to `COc1cc(NS(C)(=O)=O)ccc1NCc1c[nH]c2ccc3nc(C)ccc3c12`, the GI50 is inactive: > 100 µM.
Under `CSc1ccn(C2CC(F)C(CO)O2)c(=O)n1` (configuration not stated) stands inactive: > 100 µM; under `O=C(COc1ccc(OCC(=O)N2C(=O)CC(=O)N(c3ccc(Cl)cc3)C2=S)cc1)N1C(=O)CC(=O)N(c2ccc(Cl)cc2)C1=S`, inactive: 24.9 µM.
As for `O=C(CCN1CCCC1)CC(c1ccccc1)c1c(O)c2ccccc2oc1=O` (configuration not stated), the GI50 is inactive: > 100 µM.
Under `O=C(c1ccc(NCN2C(=O)CCC2=O)cc1)c1ccc(NCN2C(=O)CCC2=O)cc1` stands inactive: > 100 µM.
Next, `COc1ccc(-n2cnc3c(NC(C)(C)C(=O)O)ncnc32)cc1`: inactive: > 100 µM.
Under `Cc1ccc([N+](=O)[O-])cc1S(=O)(=O)Nc1ccc(C2=NN(c3ccc([N+](=O)[O-])cc3[N+](=O)[O-])C(c3cccs3)C2)cc1` (configuration not stated) stands inactive: 24.1 µM; under `Oc1cc2c3c(c1)CCCN3CCC2`, inactive: > 10 µM; under `NC(Cc1ccccc1)C(=O)N[C@H]1c2ccsc2/C(=N/O)[C@H]1O` (some centres not stated), inactive: > 100 µM.
With `CCC1(O)C(=O)OCc2c1cc1n(c2=O)Cc2c-1nc1ccccc1c2OC` (configuration not stated), the GI50 was active: 0.138 µM.
Under `COc1cc(S(=O)(=O)Nc2ccc(-c3csc(N4C(=O)C(C)SC4c4ccccc4)n3)cc2)ccc1Cl` (configuration not stated) stands active: 0.0581 µM; under `O=C1C=CC2(C=C1)O[C@H](CCc1ccccc1)[C@@H](CCc1ccccc1)O2`, inactive: > 100 µM.
Next, `C/C(=N\O)c1ccc2cc(Br)c3ccccc3c2c1`: inactive: 20.4 µM; `ClC(Cl)(Cl)C1=N[C@H]2[C@H](Br)[C@@H]3O[C@@H](c4ccccc4)[C@H](c4ccccc4)O[C@@H]3[C@H]2O1`: inactive: 19.6 µM.
With `O=C(CSc1nnc(Cc2ccccc2)o1)Nc1ccc(Cl)cc1Cl`, the GI50 is inactive: > 100 µM.
Next, `C[C@H]1CC[C@H]([C@@H](C)[C@H]2[C@@H](O)C[C@H]3[C@@H]4CC[C@H]5C[C@@H](O)CC[C@]5(C)[C@H]4CC[C@]23C)NC1`: inactive: 19.6 µM; `CN1c2ccccc2N(C)C2C1N(C)c1ccccc1N2C` (configuration not stated): inactive: 23.2 µM; `CCN(CC)c1ccc(/C=C2/C[N+](C)(C)C/C(=C/c3ccc(N(CC)CC)cc3)C2=O)cc1`: inactive: 6.12 µM.
Take `[O-][S+]1Cc2ccccc2CS1` (configuration not stated): the GI50 was inactive: > 100 µM.
Under `COc1cc(OC)c(OC)cc1/C=N/N=C(\N)NO` stands inactive: > 100 µM; under `C=CCN1CCC2(CC1)NC(=O)c1ccccc1O2`, inactive: > 100 µM.
In the case of `c1ccc2cc(OCC3CO3)c(OCC3CO3)cc2c1` (configuration not stated), the GI50 is inactive: 12.5 µM.
As for `c1ccc2c(C3CCN(CCN4CCOCC4)C3)c[nH]c2c1` (configuration not stated), the GI50 is inactive: > 100 µM.
Under `O=C(c1ccc([N+](=O)[O-])cc1[N+](=O)[O-])N(/N=C/C=C/c1ccccc1)c1nnc(-c2ccccc2)c(-c2ccccc2)n1` stands inactive: 41.1 µM.
Next, `C[C@@H]1[C@H](O)CC2=C(CC[C@@H](O)C2(C)C)[C@@]1(CO)CCc1ccoc1`: inactive: > 50 µM; `Nc1ncnc2c1ncn2[C@H]1CC[C@@H](NO)C1`: inactive: > 100 µM.
Take `COC(=O)C(C#N)=C1c2ccccc2Oc2ccccc21`: the GI50 was inactive: > 100 µM.
Under `COc1ccc2nc3n(c2c1)C(c1c(F)cccc1Cl)SC3` (configuration not stated) stands inactive: > 100 µM; under `CC(=O)CSc1c(-c2ccccc2)c(=O)n(-c2ccccc2)c(=S)n1-c1ccccc1`, inactive: > 100 µM.
Under `O=P1(c2ccccc2)c2ccccc2-c2ccccc21` stands inactive: > 100 µM; under `Cc1ccc(/C=C/C(=O)c2sc(-c3nc(C)c(C(=O)/C=C/c4ccc(C)cc4)s3)nc2C)cc1`, inactive: > 100 µM; under `COC1C2c3cc4c(cc3CC(C#N)(c3ccccc32)N1C(=O)c1ccccc1)OCO4` (configuration not stated), inactive: 54.7 µM.
For `CCCC(Sc1nc(N)nc2nc[nH]c12)C(=O)O` (configuration not stated), the GI50 was inactive: > 100 µM.
Under `O=[N+]([O-])C(=C1Nc2ccccc2N1)/C(Cl)=C(/Cl)N1CCOCC1` stands inactive: > 100 µM.
Turning to `CC(=O)OCCOCNC(=S)N/N=C(\C)c1cccs1`, the GI50 is inactive: > 100 µM.
As for `COc1cc(C)c(S(=O)(=O)N(CCCN)OCCCN)c(C)c1C`, the GI50 is inactive: > 100 µM.
With `CCN(CC)c1ccc(Cl)c2c1C(O)(C(C)C)C2(C)C` (configuration not stated), the GI50 was inactive: 19.5 µM.
On to `CCOC(=O)c1c(N2CCCC2)ncn(-c2ccccc2)c1=S`, for which the GI50 was inactive: > 100 µM.
Under `COc1ccc2c(c1)C=C([N+](=O)[O-])C(C1OC(C)(C)OC1C1COC(C)(C)O1)O2` (configuration not stated) stands inactive: 14.2 µM; under `CCN(CC)CCSc1nc2c(c(=N)n1-c1ccccc1)c(=S)n(-c1ccccc1)c(=S)n2-c1ccccc1`, inactive: 11 µM; under `O=C(O)C1C(C(=O)Nc2ccc3c(c2)Cc2ccccc2-3)C2(Cl)C(Cl)=C(Cl)C1(Cl)C2(Cl)Cl` (configuration not stated), inactive: 33.2 µM.
Next, `CCOC(=O)COc1ccc(OCC(=O)OCC)c2c1C(=O)CCCC2=O`: inactive: > 100 µM; `CCOC(=O)NC(=O)c1cn(CCCOC(=O)NCCCCCCNC(=O)OCCCn2cc(C(=O)NC(=O)OCC)c(=O)[nH]c2=O)c(=O)[nH]c1=O`: inactive: 62.4 µM.
Next, `C=CCc1cccc2cc(C(=O)Nc3ccccc3)c(=N)oc12`: inactive: 15.6 µM; `CCCCCCCC/C=C1\CCC(CN(C)C)C1=O` (configuration not stated): inactive: 16.9 µM.
Consider `CSc1ccc(/C=C2\N=C(c3ccccc3)N(c3nc4cc(C)c(C)cc4s3)C2=O)cc1`, for which the GI50 was inactive: 45.9 µM.
`Cc1cc2nnc(C(N)=O)c(N)c2cc1C`: the GI50 is inactive: > 100 µM.
Under `COC(=O)C1=C(C)NC(C)=C([N+](=O)[O-])C1c1cccc(NO)c1` (configuration not stated) stands inactive: 11.2 µM.
Turning to `COc1ccc(-c2[nH]c(-c3ccc(OC)cc3)c(-c3ccccn3)c2-c2ccccn2)cc1`, the GI50 is inactive: > 100 µM.
Under `NN/C(Cc1ccccc1)=N\NO` stands inactive: > 100 µM; under `Cc1ccc(S(=O)(=O)N2CCCCC2CCO)cc1` (configuration not stated), inactive: > 100 µM; under `N#C[BH2-][n+]1ccc(C(=O)NNCC(F)(F)F)cc1`, inactive: > 100 µM.
Next, `COC(=O)C1C2C=CC(C2)N1[C@@H](C)c1ccccc1` (some centres not stated): inactive: > 100 µM; `COC(OC)[C@@H](C)[C@H](O)[C@](C)(O)C1OC(C)(C)OC(C(C)C=C(C)C)C1C` (some centres not stated): inactive: > 100 µM; `[N-]=[N+]=NC(CBr)c1cn([C@H]2C[C@H](O)[C@@H](CO)O2)c(=O)[nH]c1=O` (some centres not stated): inactive: > 100 µM.
For the compound `Nc1ccc(-c2nc3ccccc3s2)cc1F`, the GI50 is inactive: 30.1 µM.
For the compound `CC1(C)CC(O)C2=C(O1)C(=O)c1ncccc1C2=O` (configuration not stated), the GI50 is inactive: 14.5 µM.
Consider `Nc1ccc2cc3ccc(N)cc3nc2c1`, for which the GI50 was inactive: 1.39 µM.
Next, `CCOC(=O)N1C(=O)C2C3C=CC(C2C1=O)C1C2C(=O)N(C(=O)OCC)C(=O)C2C31` (configuration not stated): inactive: > 100 µM.

The record behind these values is ChEMBL document CHEMBL1201862, “PubChem BioAssay data set” (2004).
